According to PubChem BioAssay AID686979 (National Center for Advancing Translational Sciences (NCATS), 2013):
Several values for one entry are separate records, joined by “and”; a condition that tells them apart may be missing. Equal values may be shown once. Hit rate of the full screen: of about 420,000 compounds, about 50,000 (12%) were called active. The inconclusive results got no clear call from the source; some entries with a clear call stand among them for comparison. The call rests on the fitted dose curve; in most records, active means well fitted inhibition curve with a large enough effect; inconclusive means small, poorly fitted or top-dose-only effect; inactive means flat fitted curve, though single readings scatter. Potencies beside an inconclusive call are fits to weak or partial responses and may not hold up.

assay: qHTS for Inhibitors of human tyrosyl-DNA phosphodiesterase 1 (TDP1): qHTS in cells in presence of CPT; details: chicken DT40 Tdp1-/-;hTDP1 cells + 20 nM CPT, ATP luminescence, 48 h; activity change, negative = growth inhibition: at 46.2 µM (top of the series) unless noted; further: nearly all actives have a fitted effect of over 55% in size
Summary of the method: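 Chicken DT40 Tdp1-/- cells stably complemented with human TDP1 were seeded at 400 cells/well in medium containing 20 nM camptothecin, exposed to pin-transferred compounds, and grown at 37 °C for at least 48 hr. Viability was read as ATP luminescence.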
On the % scale 0 is the no-effect control and ±100 the full control effect; potency means the concentration at half of the fitted maximal effect; tags describe the fitted curve by direction and shape.

Question: For `CCc1nc2ccc(C(=O)Nc3cccc(NS(C)(=O)=O)c3)cn2c1N(C=O)CCC(C)C`, which Potency is on record?
Answer: inconclusive: 23.1 µM [inhibitor, single point]

Question: For `CCc1sc(C(=O)Nc2cccnc2)cc1Br`, which “activity change, negative = growth inhibition” value is on record?
Answer: inactive: -27.7%

Question: For `COc1cc2c(C#N)c(N3CCN(c4ccccc4OC)CC3)nc(N)c2c(N)n1`, which Potency is on record?
Answer: inconclusive: 23.1 µM [inhibitor, partial curve, poor fit]

Question: For `Cc1nn(C(=O)c2ccccc2)c(C)c1Sc1ccc(Cl)cc1`, which Potency is on record?
Answer: inconclusive: 9.2 µM [inhibitor, single point]

Question: With `COc1ccc(C2C3=C(CC(C)(C)CC3=O)Oc3ncn(CC(C)C)c(=N)c32)cc1` (stereo not drawn) as the molecule, how does the Potency read?
Answer: inconclusive: 16.4 µM [inhibitor, single point]

Question: For `COc1ccccc1N1CCN(CC(=O)c2ccc(F)cc2)CC1`, which “activity change, negative = growth inhibition” value is on record?
Answer: inactive: -21%

Question: Which “activity change, negative = growth inhibition” value does the source give for `C[C@H]1COC(=O)[C@H](CC(=O)OC(C)(C)C)C/C=C\C[C@H](CC(=O)N(CCO)Cc2ccccc2)C(=O)N1` here?
Answer: inactive: -10.4%

Question: With `C=C(C)C1CC=C(C)/C(=N/NC(=O)CNc2ccc(OCC)cc2)C1` (stereo not drawn) as the molecule, how does the Potency read?
Answer: inconclusive: 5.8 µM [inhibitor, full curve, poor fit]

Question: With `O=C(C[C@@H]1C/C=C/CC[C@@H](Cc2ccc(F)cc2)C(=O)O[C@H](c2ccccc2)CNC1=O)NCCO` as the molecule, how does the Potency read?
Answer: inconclusive: 29.1 µM [inhibitor, single point]

Question: Which Potency does the source give for `CCN(CC)CCOC(=O)C1(C2CCCCC2)CCCCC1` here?
Answer: inconclusive: 23.7 µM [inhibitor, single point] and inconclusive: 16.4 µM [inhibitor, partial curve, poor fit]

Question: For `COC(=O)C1=C(C)NC(=O)/C1=C\c1cc(C)n(-c2c(C)cccc2C)c1C`, which Potency is on record?
Answer: inconclusive: 13 µM [inhibitor, partial curve]

Question: For `COc1ccc2c(=O)c3c(=O)n(Cc4ccco4)c(-c4ccc(C)cc4)nc3oc2c1`, which Potency is on record?
Answer: inconclusive: 29.1 µM [inhibitor, single point]

Question: For `O=C(Nc1ccc(N2CCN(C(=O)c3cccs3)CC2)cc1)c1cccnc1Cl`, which Potency is on record?
Answer: inconclusive: 32.6 µM [inhibitor, single point]

Question: With `Cc1ccc(S(=O)(=O)N2CCN(c3nc(-c4ccc(CN5CCNCC5)s4)nc4ccccc34)CC2)cc1` as the molecule, how does the Potency read?
Answer: inconclusive: 35.5 µM [inhibitor, single point]

Question: Which Potency does the source give for `Cc1ccccc1C(=O)NNC(=S)NC(=O)c1cccs1` here?
Answer: active: 20.6 µM

Question: With `COc1ccc(C)cc1-n1nnnc1SCC1CCCO1` (stereo not drawn) as the molecule, how does the Potency read?
Answer: inconclusive: 23.1 µM [inhibitor, single point]

Question: For `CCCCOCCOCCOCc1cc2c(cc1CCC)OCO2`, which Potency is on record?
Answer: inconclusive: 68.6 µM [inhibitor, single point]

Question: With `COc1ccc(Br)cc1/C=N/NC(=O)Cn1nnnc1N` as the molecule, how does the Potency read?
Answer: inconclusive: 29.1 µM [inhibitor, single point]

Question: With `Cc1ccccc1-n1nc(CSc2nc3ccccc3[nH]2)c(-c2ccccc2)c1N` as the molecule, how does the Potency read?
Answer: inconclusive: 20.6 µM [inhibitor, single point]

Question: For `Nc1nc(Cl)cc(NCCc2ccc(O)cc2)n1`, which “activity change, negative = growth inhibition” value is on record?
Answer: inactive: -20.1%

Question: Which “activity change, negative = growth inhibition” value does the source give for `O=C1C(CCCNC(=S)NCc2ccccc2)NC(=S)N1Cc1ccccc1` (stereo not drawn) here?
Answer: inactive: -5.56%

Question: For `Cc1ccc(NS(=O)(=O)c2ccc(C)c(NC(=O)COc3ccccc3)c2)c(C)c1`, which Potency is on record?
Answer: inconclusive: 20.6 µM [inhibitor, single point]

Question: With `O=c1cc(-c2ccccc2)oc2c(O)c(O)ccc12` as the molecule, how does the Potency read?
Answer: inconclusive: 20.6 µM [inhibitor, single point]

Question: For `CCNc1nc(SCCOc2ccc(Br)cc2)nc(N(C)C)n1`, which Potency is on record?
Answer: inconclusive: 20.6 µM [inhibitor, single point]

Question: For `CC(C)CN1CCC(C(=O)NCC2CCCO2)CC1` (stereo not drawn), which “activity change, negative = growth inhibition” value is on record?
Answer: inactive: -74.9%

Question: For `COCC(=O)Nc1nc(-c2ccc(-c3ccccc3)cc2)cs1`, which activity change, negative = growth inhibition is on record?
Answer: inconclusive: -31.2% [inhibitor]

Question: Which “activity change, negative = growth inhibition” value does the source give for `CN(C)CCN(C(=O)c1ccc(Br)s1)c1nc2cc3c(cc2s1)OCCO3` here?
Answer: inactive: 7.06%

Question: With `Cc1ccc(S(=O)(=O)N(CC(=O)NCc2ccco2)C2CCCCC2)cc1` as the molecule, how does the activity change, negative = growth inhibition read?
Answer: inconclusive: -34% [inhibitor]

Question: For `CC1(C(=O)NS(=O)(=O)c2cccc(OC(F)F)c2)CCN1C(=O)c1cccc(F)c1` (stereo not drawn), which “activity change, negative = growth inhibition” value is on record?
Answer: inactive: -16%

Question: With `CC(C)Cc1ccc(C(C)NC(=O)c2ccc(=O)[nH]c2)cc1` (stereo not drawn) as the molecule, how does the Potency read?
Answer: inconclusive: 20.6 µM [inhibitor, single point]

Question: With `C=CCN(CC=C)S(=O)(=O)c1ccc(NC(=S)NC(=O)c2ccco2)cc1` as the molecule, how does the Potency read?
Answer: inconclusive: 29.1 µM [inhibitor, single point]

Question: With `COc1ccc(CNC(=O)[C@@H](NC(=O)C2CCN(C(=O)[C@@H](N)CCSC)CC2)C(C)C)cc1` as the molecule, how does the “activity change, negative = growth inhibition” value read?
Answer: inactive: 2.71%

Question: For `COc1cc(/C=C(\C(=O)O)c2ccc(S(=O)(=O)N3CCCC3)s2)ccc1OCCC(C)C`, which Potency is on record?
Answer: active: 23.1 µM

Question: Which “activity change, negative = growth inhibition” value does the source give for `COc1ccccc1-n1c(SCC(=O)NCC2CCCO2)nc2c([nH]c3ccccc32)c1=O` (stereo not drawn) here?
Answer: inactive: -14.6%

Question: With `CN(C(=O)c1cccc(NC(=O)Cc2ccc(NC(=O)C3CCN(C(=O)C4CCCC4)CC3)cc2)c1)C1CC1` as the molecule, how does the Potency read?
Answer: inconclusive: 29.1 µM [inhibitor, single point]

Question: For `CCOc1ccc(CCNC(=O)c2cn(C)c3ccc(S(=O)(=O)N4CCOCC4)cc3c2=O)cc1OCC`, which Potency is on record?
Answer: inconclusive: 29.1 µM [inhibitor, single point]

Question: With `CCCC(=O)Nc1ccc(S(=O)(=O)N2CCc3ccccc32)cc1` as the molecule, how does the Potency read?
Answer: inconclusive: 29.1 µM [inhibitor, single point]

Question: With `Cc1cnc(C(=O)OCC(=O)C23CC4CC(CC(C4)C2)C3)cn1` as the molecule, how does the “activity change, negative = growth inhibition” value read?
Answer: inactive: -13.3%

Question: Which Potency does the source give for `COCCNC(=O)C1CC(c2ccc(C(F)(F)F)cc2)=NO1` (stereo not drawn) here?
Answer: inconclusive: 20.6 µM [inhibitor, partial curve]

Question: With `O=C(Nc1cc(-c2nc3ncccc3o2)ccc1Cl)c1ccco1` as the molecule, how does the “activity change, negative = growth inhibition” value read?
Answer: inactive: -10.8%

Question: With `CCOc1cc(CN2CCCC(C(=O)c3cccc(C(F)(F)F)c3)C2)ccc1O` (stereo not drawn) as the molecule, how does the Potency read?
Answer: inconclusive: 23.1 µM [inhibitor, partial curve]

Question: For `Cc1ccccc1NC(=O)Nc1nc(C(N)Cc2ccccc2)cs1` (stereo not drawn), which Potency is on record?
Answer: active: 23.1 µM

Question: With `Cc1cc(NS(=O)(=O)c2ccc(NC(=O)c3ccccc3F)cc2)nc(C)n1` as the molecule, how does the “activity change, negative = growth inhibition” value read?
Answer: inactive: -2.84%

Question: For `COc1ccccc1N1CCN(C(=O)c2cc3c(s2)CCCCC3)CC1`, which Potency is on record?
Answer: inconclusive: 29.1 µM [inhibitor, single point]

Question: Which Potency does the source give for `Cc1cc(S(=O)(=O)N(Cc2ccc(C(C)(C)C)cc2)Cc2cccs2)ccc1-n1cnnn1` here?
Answer: inconclusive: 29.1 µM [inhibitor, single point]

Question: With `Cc1ccc(S(=O)(=O)N(C(=O)c2ccncc2)c2ccc(OC(=O)c3ccncc3)cc2)cc1` as the molecule, how does the Potency read?
Answer: inconclusive: 29.1 µM [inhibitor, single point]

Question: For `CCCOc1ccc(-c2nnc(-c3ccco3)o2)cc1`, which “activity change, negative = growth inhibition” value is on record?
Answer: inactive: -11.5%

Question: With `Cc1ccc(-c2cc(C(=O)N/N=C/C=C/c3ccccc3)n[nH]2)s1` as the molecule, how does the Potency read?
Answer: active: 16.4 µM

Question: For `CCCc1cc2c(cc1NC(=O)c1ccccc1F)OCO2`, which “activity change, negative = growth inhibition” value is on record?
Answer: inactive: -2.96%

Question: For `CC(C)NC(=O)NC(=O)COC(=O)/C=C/c1ccccc1[N+](=O)[O-]`, which “activity change, negative = growth inhibition” value is on record?
Answer: inactive: 7.86%

Question: Which Potency does the source give for `CCN(CC)Cc1c(C(=O)N/N=C/c2cccc3ccccc23)nnn1-c1nonc1N` here?
Answer: inconclusive: 3.26 µM [inhibitor, partial curve]

Question: With `S=C(NCc1ccc2[nH]c3c(c2c1)CCCC3)Nc1ccccc1Cl` as the molecule, how does the Potency read?
Answer: inconclusive: 23.1 µM [inhibitor, single point]

Question: Which Potency does the source give for `COc1ccc(CN2CCNC(=O)C2CC(=O)NCCCC2CCCC2)c(C)c1C` (stereo not drawn) here?
Answer: inconclusive: 18.4 µM [inhibitor, single point]

Question: For `O=C(N/N=C/C(Cl)=C/c1ccccc1)c1ccccn1`, which Potency is on record?
Answer: inconclusive: 20.6 µM [inhibitor, single point]

Question: Which Potency does the source give for `CCN(CC)C(=O)C1CCCN(c2ccc([N+](=O)[O-])cc2/C=N/NC(=O)c2cccc(Br)c2)C1` (stereo not drawn) here?
Answer: inconclusive: 16.4 µM [inhibitor, single point]

Question: Which Potency does the source give for `COCCN(C)C(=O)c1cnn(-c2ncc3c(n2)-c2ccccc2CC3)c1C` here?
Answer: inconclusive: 20.6 µM [inhibitor, single point]

Question: With `CCCCN(C)Cc1cc(=O)oc2cc3c(cc12)CCCC3` as the molecule, how does the Potency read?
Answer: inconclusive: 16.4 µM [inhibitor, single point]

Question: Which Potency does the source give for `O=C(Cc1ccc(S(=O)(=O)N2CCOCC2)s1)Nc1cc(C(F)(F)F)ccc1N1CCCC1` here?
Answer: inconclusive: 16.4 µM [inhibitor, single point]

Question: With `COc1ccc(C(C(=O)NCc2ccc(F)cc2)N(Cc2cccnc2)C(=O)c2snc(C(N)=O)c2N)cc1` (stereo not drawn) as the molecule, how does the Potency read?
Answer: inconclusive: 18.4 µM [inhibitor, single point]

Question: With `CC1(C)CC(=NOC(=O)c2ccccc2)CC(C)(C)N1` as the molecule, how does the Potency read?
Answer: inconclusive: 3.66 µM [inhibitor, full curve]

Question: With `CC(=O)C1N=NCC1c1ccccc1` (stereo not drawn) as the molecule, how does the “activity change, negative = growth inhibition” value read?
Answer: inactive: 1.52%

Question: Which Potency does the source give for `COc1ccc(-c2nc3ccc(Br)cn3c2Cc2ccsc2)cc1OC` here?
Answer: inconclusive: 18.4 µM [inhibitor, single point]

Question: Which “activity change, negative = growth inhibition” value does the source give for `CC(C)CN1CC[C@@]2(CCCN(C(=O)c3cccc(F)c3)C2)C1` here?
Answer: inactive: 5.21%

Question: For `O=C(CCc1ccccc1Cl)N1CCN(S(=O)(=O)c2ccccc2)CC1`, which activity change, negative = growth inhibition is on record?
Answer: inconclusive: -31.4% [inhibitor]

Question: For `CC(=O)c1ccc(-n2c(CCC(=O)O)ccc2-c2ccc(C)cc2)cc1`, which Potency is on record?
Answer: inconclusive: 25.9 µM [inhibitor, partial curve, poor fit]

Question: For `CCN(c1ccccc1)S(=O)(=O)c1ccc(Cl)c(C(=O)N2CCCC2)c1`, which Potency is on record?
Answer: inconclusive: 18.4 µM [inhibitor, single point]

Question: For `Cc1cccc(OCC(=O)NCC2(N3CCN(C)CC3)CCCCC2)c1C`, which Potency is on record?
Answer: inconclusive: 29.1 µM [inhibitor, single point]

Question: Which Potency does the source give for `Cc1ccc2c(c1)[C@H]1[C@H](CO2)[C@H](c2ccccc2)[C@]2(C)C(=O)N(Cc3ccc(F)cc3)CC(=O)N12` here?
Answer: inconclusive: 29.1 µM [inhibitor, single point]
